The values that follow come from the RNAGym collection of RNA variant scans (doi:10.1073/pnas.2313332121).

Sequences and labels used below:
B1: TPR 5TU (parent)
chain: GGAUCUUCUCGAUCUAACAAAAAAGACAAAUCUGCCACAAAGCUUGAGAGCAUCUUCGGAUGCAGAGGCGGCAGCCUUCGGUGGCGCGAUAGCGCCAACGUUCUCAACUAUGACACGCAAAACGCGUGCUCCGUUGAAUGGAGUUUAUCAUG

Variants at the floor of the assay are shown more often than the library holds them.

Variants of B1 are the subject of the data set. The data set can be described thus: polymerase ribozyme fitness, log enrichment relative to wild type (log ratio); higher = more active; in vitro selection for triplet polymerase activity. Summed up:
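Fitness compares each genotype's enrichment to that of the wild type on a logarithmic scale, averaging replicates with inverse-variance weights. The logarithm is base 2. Enrichment came from Illumina sequencing of input and output libraries after one triplicate round of in vitro selection, which included frozen incubation at −7 °C, of PCR-built, transcribed mutant libraries of each subunit of a heterodimeric triplet polymerase ribozyme. Only genotypes with ≥10 input reads and ≥1 read per output were kept.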
With G50U C51G G83A U90A G92C A98U U109A, the “polymerase ribozyme fitness (log ratio)” value is ≤ -4.2.
With G50A U77G C95U C105A C149A, the “polymerase ribozyme fitness (log ratio)” value is ≤ -4.2.
Turning to A52C U56A C75U A89U U90G C95G U151G, the “polymerase ribozyme fitness (log ratio)” value was ≤ -4.2.
In the case of G50U G71C U77C, the “polymerase ribozyme fitness (log ratio)” value was ≤ -4.2.
The result for C51A C57G G67U C95U U101G reads ≤ -4.2; that for C51A A52G G83U A150G, ≤ -4.2; that for G50C A142U, -3.9.
The same measure for C51U U56A A73U U78G A91U G141C G152A: -3.97.
For the variant C51U C54G C85U U104C A120G U127G U144C, the “polymerase ribozyme fitness (log ratio)” value was ≤ -4.2.
For A52G A98U, the “polymerase ribozyme fitness (log ratio)” value was -2.02.
The same measure for A52G C93U C96U G136C A138G U146A: ≤ -4.2; for G50U C95G: -0.905.
The result for A52C U148A reads -4.18; that for G50C U55G C63A C76G A91G C125G U145C, ≤ -4.2; that for G50A U78G A91G A113C C131U G152C, ≤ -4.2.
The same measure for G50C G71U A121G: ≤ -4.2; for C51G C57A C69G G133U: ≤ -4.2.
Regarding G50U C79A C103G, the “polymerase ribozyme fitness (log ratio)” value is ≤ -4.2.
Turning to G50A U53A A66U, the “polymerase ribozyme fitness (log ratio)” value was ≤ -4.2.
In the case of G50C C72A G74A A91C C149A, the “polymerase ribozyme fitness (log ratio)” value is ≤ -4.2.
The result for A52C G58A A91U C108G C131U reads ≤ -4.2; that for G50A G65A C85U, -3.49.
As to G50C A60C U78C G94U A98U C118A, the “polymerase ribozyme fitness (log ratio)” value is ≤ -4.2.
The same measure for A52G A73G: -0.266; for A52G G92C A113C A115G U146C: ≤ -4.2.
The result for G50U A66C C76U U82G A89G A138U reads ≤ -4.2; that for C51U C69A G84U A91G G133A U144A A147U, ≤ -4.2; that for A52C G84U C96U U144A, ≤ -4.2.
The result for C51U U56A A73U G86A reads -4.02; that for G50U G84A A91U C116A, ≤ -4.2.
As to A52C C85G A97G U151C, the “polymerase ribozyme fitness (log ratio)” value is ≤ -4.2.
As for A52G U90A A142G, the “polymerase ribozyme fitness (log ratio)” value was ≤ -4.2.
With C51U G71U G88C A89G A147C, the “polymerase ribozyme fitness (log ratio)” value was ≤ -4.2.
The result for C51A U53G G86A reads ≤ -4.2; that for G50C C118G G140A, ≤ -4.2; that for A52G U56A A73G C93A G140A U145A, ≤ -4.2.
The result for A52G G58A G74A A106C reads ≤ -4.2; that for G50U C79U G84A C103U, ≤ -4.2.
The same measure for C51U A89G A97G G143U: -3.43.
Turning to G50U G86A C93U C96U, the “polymerase ribozyme fitness (log ratio)” value is -0.529.
For C51U C96U C105U, the “polymerase ribozyme fitness (log ratio)” value turned out to be 0.0676.
On to G50U A52G, for which the “polymerase ribozyme fitness (log ratio)” value is -0.0259.
The same measure for C51U A66C C85G C108G C132U: ≤ -4.2.
The result for C51A C85A U134C reads -2.88; that for G50A G83C U146G, -2.55; that for C51U A107G, ≤ -4.2.
The same measure for A52C C85U A150C G152U: ≤ -4.2; for C51G C95G U139A G140U A150C: ≤ -4.2; for A52G U55G G71A C85A C125A U144C C149G: ≤ -4.2.
On to G50C A122G G136A G140U, for which the “polymerase ribozyme fitness (log ratio)” value is ≤ -4.2.
The result for G50U G58U A89G G140C reads ≤ -4.2.
Consider G50A U56A C93A U127G A150U, for which the “polymerase ribozyme fitness (log ratio)” value was ≤ -4.2.
Take G50C G92A C116U U151C: the “polymerase ribozyme fitness (log ratio)” value was ≤ -4.2.
The result for A52C U101G G140C reads ≤ -4.2; that for A52G C72U C85U A110U, ≤ -4.2; that for G50U A52G C75A C85A G92C G126U G128A A147U, ≤ -4.2.
The same measure for A52C G84A C116G A120U: -1.12.
The result for C51U C72U G84U A106G A121U C123A A138C reads ≤ -4.2; that for A52G G94U A115C C131G G133C, ≤ -4.2; that for G50C C54G U56C G94U A106G, ≤ -4.2.
Regarding G50C G141U, the “polymerase ribozyme fitness (log ratio)” value was -2.26.
The result for C51G G84U reads -3.11; that for A52C C54A G81U G86U G143U A150C, ≤ -4.2; that for A52G G71U C96U, -4.1.
As for C51G U56A, the “polymerase ribozyme fitness (log ratio)” value was -2.67.
The same measure for C51U C95A G126U A138U A142C: ≤ -4.2.
The result for A52G A73G G88C C108G G124A G133U G140A A142G reads ≤ -4.2; that for C51A G84A U144A, -2.52; that for C51A A52G, -0.455.
Regarding C51A G68A U78A C87G, the “polymerase ribozyme fitness (log ratio)” value was ≤ -4.2.
Take C51A C85A G141A: the “polymerase ribozyme fitness (log ratio)” value was -1.93.
The result for C51A C76U C87A reads ≤ -4.2; that for A52C A64G A89G C108U, ≤ -4.2; that for A52C C54U G67U U82G G86C C87U, ≤ -4.2.
For the variant C51U U82A G88U, the “polymerase ribozyme fitness (log ratio)” value was ≤ -4.2.
The same measure for C51U C96G U144A: -1.45; for C51U U53A U61A A97C G140A G143A: ≤ -4.2; for A52G C57A G92U: -0.753.
With G50U G83C, the “polymerase ribozyme fitness (log ratio)” value was -0.813.
As for G50U G83A, the “polymerase ribozyme fitness (log ratio)” value is -0.347.
With C51U A73U C118G A119C, the “polymerase ribozyme fitness (log ratio)” value was -1.81.
In the case of A52C C76G C93A A138G U139A U148G, the “polymerase ribozyme fitness (log ratio)” value was ≤ -4.2.
The result for C51G C57A G83C C87A C96A reads ≤ -4.2; that for A52U A66G C87G A97G, ≤ -4.2; that for A52G C103U, -1.06.
The result for C51U U61G C96U G133U reads ≤ -4.2; that for C51G U56A A89U A119C C129U, ≤ -4.2.
The result for G50C U55A reads -3.29; that for A52C U55C G81C G83A C105G, ≤ -4.2; that for C51U U90G C93A A121C U127C, ≤ -4.2.
Turning to A52G U101G, the “polymerase ribozyme fitness (log ratio)” value is -0.16.
The same measure for G50U A122G: -0.236; for G50A G59U C75G U90G C95G: ≤ -4.2; for A52C C85U G94C G141C: -3.45.
The result for A52C U55A C85G C116A reads -3.78.
For the variant G50C G58A C87U U104G, the “polymerase ribozyme fitness (log ratio)” value is ≤ -4.2.
Consider A52C C57G G58A G84A A91U G126A A150G, for which the “polymerase ribozyme fitness (log ratio)” value is ≤ -4.2.
C51A A52U C63U C99G A106C A119G G126U: the “polymerase ribozyme fitness (log ratio)” value was ≤ -4.2.
The same measure for G50C G67A G86C A91U U139A: ≤ -4.2; for A52G C76U C85G C123A U144G: -0.879.
Regarding C51A G100U U102G, the “polymerase ribozyme fitness (log ratio)” value is ≤ -4.2.
For the variant A52G G88A, the “polymerase ribozyme fitness (log ratio)” value is ≤ -4.2.
The same measure for G50C C103A C149U: ≤ -4.2; for A52C C57U G67A G80U A121C: ≤ -4.2; for A52G A60U C85A G94U C96G: -3.93.
G50C G65U C85A: the “polymerase ribozyme fitness (log ratio)” value was ≤ -4.2.
Turning to C51U C75G G81A A91U A121G G124C U148C, the “polymerase ribozyme fitness (log ratio)” value is ≤ -4.2.
The same measure for A52C G58U A66G C87G: ≤ -4.2.
The result for C51A C75U reads -2.27.
The same measure for C51A C95U C118U U135A: -2.41; for C51U C57A G83C A106G: -0.97; for G50A G71C G92A: ≤ -4.2.
Turning to A52G A121C, the “polymerase ribozyme fitness (log ratio)” value was -0.337.
G50C G58A A60C C87G G133U: the “polymerase ribozyme fitness (log ratio)” value is ≤ -4.2.
The same measure for A52G U55A C76G G81C A121U: ≤ -4.2; for A52C G84A: -1.32.
The result for C51G C87A reads ≤ -4.2; that for C51U C87U, -1.13; that for G50C C54U U55C C85G A142C, ≤ -4.2.
The result for C51U G58A C79G G84U reads ≤ -4.2; that for C51A C79A C99U, ≤ -4.2; that for G50C A64U C103A G141U, ≤ -4.2.
In the case of G50U G92A, the “polymerase ribozyme fitness (log ratio)” value was -2.93.
Take A52G G88U U127G: the “polymerase ribozyme fitness (log ratio)” value was ≤ -4.2.
The same measure for G50C U130C: -1.3; for C51G C54A G83U C85G C114U U151C: ≤ -4.2; for G50A U53C U56A A91U G94C A142C: ≤ -4.2.
Regarding G50U C87U U135G G141U, the “polymerase ribozyme fitness (log ratio)” value is ≤ -4.2.
Consider G50C G58A A60C G71U A89G G92C G128C, for which the “polymerase ribozyme fitness (log ratio)” value was ≤ -4.2.
The same measure for A52G U55A G92U: -0.803; for A52C G59C G88C A98G: ≤ -4.2; for C51U G68A G92A U109C: ≤ -4.2.
The same measure for G50C C63G C85U C93A: ≤ -4.2; for G50U C79G A91U C108U U134C: ≤ -4.2; for A52G G62A C63G G68A C93A U146G: ≤ -4.2.
The result for A52C G88A U127C reads ≤ -4.2.
As for G50C G59C G83A, the “polymerase ribozyme fitness (log ratio)” value is -3.91.
As for A52G C96U U101A A142U A150G, the “polymerase ribozyme fitness (log ratio)” value was ≤ -4.2.
As for A52G G58U C76U C93G U127A C131G, the “polymerase ribozyme fitness (log ratio)” value was ≤ -4.2.
As to G50U C93U, the “polymerase ribozyme fitness (log ratio)” value is -2.05.
The result for A52G G58A G88A reads ≤ -4.2; that for A52C G84A G88C, -4.09; that for A52C C87A U104G, ≤ -4.2.
Regarding A52C C85A, the “polymerase ribozyme fitness (log ratio)” value was -3.22.
With A52C C72U C96A C123U, the “polymerase ribozyme fitness (log ratio)” value was -2.72.
The same measure for C51A G86U C108G A137C: ≤ -4.2; for A52G A66G C96G U104G U135G: ≤ -4.2; for A52C G83C A98G A107G: ≤ -4.2.
The result for A52C A113C reads -3.36; that for A52C A113U, -3.88; that for A52G C54U G58U C72U G88A G152A, ≤ -4.2.
In the case of C51U G59U C87G A97U, the “polymerase ribozyme fitness (log ratio)” value is ≤ -4.2.
As to G50C C54U G94U G140C A147U, the “polymerase ribozyme fitness (log ratio)” value is ≤ -4.2.
The same measure for C51A G74A: ≤ -4.2; for G50C U53A C96U U139A A150C: ≤ -4.2; for C51G C57G G88A C116U G136U U148A: ≤ -4.2.
The same measure for G50U G81A U102G: -2.74.
Regarding C51U U55A C93U C95U, the “polymerase ribozyme fitness (log ratio)” value was ≤ -4.2.
The result for C51G C57A G94U A115C U130C G143U reads ≤ -4.2.
On to A52G G58U A66G G70U G92A G100A C116A U148A, for which the “polymerase ribozyme fitness (log ratio)” value was ≤ -4.2.
The result for A52C C85U U102C reads -2.57; that for A52G C69A G80U C87G C108G C114U, ≤ -4.2; that for C51G A64C C69U G80A G86A C96U C114A, ≤ -4.2.
The result for G50A G65A C75U C85A C95U C125G C131U reads ≤ -4.2; that for G50A U134A, -3.21; that for A52C U55A U56A G86C, -4.01.
For the variant C51U A150C, the “polymerase ribozyme fitness (log ratio)” value was ≤ -4.2.
